# Test results published in PMC4336329 (PLoS ONE, 2015).
# Hit rate of the full screen: of about 310,000 compounds, about 14,000 (4.5%) showed an effect of 50% or more. Effects have a minus sign here. The list shows a part of the results.
# Target: human ether-à-go-go-related gene (hERG) potassium channel (human, UniProt Q12809)
# Experiment: primary screen, population patch clamp on CHO cells stably expressing hERG
# 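Note: peak tail current of the secondary pulse compared with the same well before compound.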
# Sequence of human ether-à-go-go-related gene (hERG) potassium channel (Q12809 whole entry, looked up): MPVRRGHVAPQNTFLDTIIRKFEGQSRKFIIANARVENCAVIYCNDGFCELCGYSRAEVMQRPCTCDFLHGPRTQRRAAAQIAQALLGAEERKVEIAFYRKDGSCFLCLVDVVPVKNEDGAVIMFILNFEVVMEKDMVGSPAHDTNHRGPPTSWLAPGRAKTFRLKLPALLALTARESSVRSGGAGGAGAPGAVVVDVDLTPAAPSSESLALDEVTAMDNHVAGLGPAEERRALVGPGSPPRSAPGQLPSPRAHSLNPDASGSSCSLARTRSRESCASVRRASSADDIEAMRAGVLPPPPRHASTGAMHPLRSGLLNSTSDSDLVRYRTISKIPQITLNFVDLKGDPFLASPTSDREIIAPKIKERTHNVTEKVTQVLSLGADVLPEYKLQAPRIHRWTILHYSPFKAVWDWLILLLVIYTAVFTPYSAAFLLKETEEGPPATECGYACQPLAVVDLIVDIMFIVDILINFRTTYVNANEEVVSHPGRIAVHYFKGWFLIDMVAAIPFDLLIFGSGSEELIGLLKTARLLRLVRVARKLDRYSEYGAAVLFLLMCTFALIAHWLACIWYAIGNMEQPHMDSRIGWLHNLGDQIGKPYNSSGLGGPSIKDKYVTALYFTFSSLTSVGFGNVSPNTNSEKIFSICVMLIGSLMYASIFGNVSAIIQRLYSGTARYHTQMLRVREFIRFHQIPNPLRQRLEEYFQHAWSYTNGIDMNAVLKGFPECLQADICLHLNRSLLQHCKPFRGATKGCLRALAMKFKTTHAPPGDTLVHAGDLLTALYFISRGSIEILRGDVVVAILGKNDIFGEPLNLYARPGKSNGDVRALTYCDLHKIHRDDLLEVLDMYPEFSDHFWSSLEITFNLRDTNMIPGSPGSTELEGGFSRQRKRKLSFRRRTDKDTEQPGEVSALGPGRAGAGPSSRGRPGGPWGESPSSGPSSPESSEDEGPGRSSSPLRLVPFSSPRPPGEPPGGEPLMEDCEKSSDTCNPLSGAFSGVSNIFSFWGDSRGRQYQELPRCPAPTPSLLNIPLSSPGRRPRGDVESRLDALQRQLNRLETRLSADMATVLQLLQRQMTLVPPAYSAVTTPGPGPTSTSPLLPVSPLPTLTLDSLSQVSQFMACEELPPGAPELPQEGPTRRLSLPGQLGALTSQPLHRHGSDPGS
row,SMILES,"hERG current change (%, negative = inhibition) at 10uM"
1,Cc1cc(-c2nnc(CCC(=O)N(C)Cc3ccsc3)o2)no1,15.1%
2,O=C(Nc1cccc(S(=O)(=O)N2CCCCC2)c1)C1CC1,-10.6%
3,CCCCNC(=O)Cn1cnc2ccc(S(=O)(=O)N3CCC(C)CC3)cc2c1=O,2.68%
4,COC(=O)C1CCN(CC(=O)Nc2cc(Cl)ccc2OC)CC1,-19%
5,O=C(Cc1c(F)cccc1Cl)NNC(=O)c1ccncc1,-4%
6,CN(C)c1nnc(-c2ccc(Cl)cc2)o1,16.6%
7,COc1cc(/C=N/N=C2/C(=O)Nc3ccccc32)ccc1O,0.556%
8,COCCOc1ccc(C(F)(F)F)cc1NC(=O)Cc1ccc(S(=O)(=O)N2CCOCC2)s1,-45.6%
9,COc1ccccc1-c1cc(C(F)(F)F)nc(N2CCOCC2)n1,-5.03%
10,CN(Cc1cnccn1)C(=O)CC1C(=O)NCCN1CC(c1ccccc1)c1ccccc1 (stereo not shown),12.2%
11,O=c1[nH]ncc(N2CCCCC2)c1Cl,6.3%
12,CCOC(=O)c1cnc2cc3c(cn2c1=O)CCCC3,-9.43%
13,NS(=O)(=O)c1ccc(CCNC(=O)CSc2ccsc2[N+](=O)[O-])cc1,14.5%
14,COc1ccc(C(=O)O/N=C(\N)c2ccc(Br)cc2)cc1,17.6%
15,CC(C)NS(=O)(=O)c1ccc2c(c1)NCC2,20.7%
16,Oc1ccc(/C=N/N(c2ccccc2)c2ccccc2)c(O)c1O,19.3%
17,Cc1cc(F)ccc1S(=O)(=O)N1CCCOC1CNC(=O)C(=O)NCCCN1CCOCC1 (stereo not shown),11.6%
18,Cc1cc(C(C)(C)C)oc1C(=O)N(CC(=O)NC1CCCC1)Cc1ccc(Cl)cc1,-2.27%
19,C/C(=N\NC(=O)c1ccc(Cl)c(Cl)c1)c1ccccn1,13.1%
20,CCOc1ccc(-n2cc(C(=O)N3CCC(C)CC3)c3cc(OC)c(OC)cc3c2=O)cc1,-25.7%
21,O=C(NCCc1csc(-c2cccnc2)n1)c1ccccc1Br,-4.05%
22,COc1cccc(C(=O)OC(C)C(=O)Nc2ccc3c(c2)OCO3)c1 (stereo not shown),-0.0476%
23,N#Cc1cc(-c2ccccc2)nc(Oc2ccc(Cl)cc2)n1,3.36%
24,Cc1nc(NC(=O)CCl)sc1C(=O)N(C)C,18.1%
25,COc1ccccc1NC(=O)COC(=O)c1c(C)nn(-c2ccccc2)c1C,-9.56%
